From patent US5436221A, “Tumor metastasis inhibiting compounds and methods” (Fuji Photo Film Co., Ltd., priority 1991, dated 1995)
Part of at least one peptide drawing is inferred or uncertain, most often the ends. Numbered stars: 1 amine (or outer) side, 2 acyl side, 3 side chain; on linkers, the order of the positions; unused ones are H or OH. Square brackets hold non-standard residues; d marks the D form. Peptide text beside a SMILES is read from it. * marks the point of attachment. X3 = O=C(C(COS(=O)(=O)O)OS(=O)(=O)O)*; dPhg = N[C@@H](C(=O)O)c1ccccc1; Suc = O=C(CCC(=O)[*:2])[*:1]; X2 = CC(CCC(=O)*)OS(=O)(=O)O; dNle = CCCC[C@@H](N)C(=O)O; X1 = O=C(CCCOS(=O)(=O)O)*; Nle = CCCC[C@H](N)C(=O)O; NHcHex = C1CCC(N*)CC1; NHiPr = CC(C)N*

Experiments:
B16-BL6 melanoma cells = experiment: Experimental melanoma metastasis in lungs caused by injection of B16-BL6 melanoma cells; format: in vivo, C57BL/6 female mice
Procedure: The tumor metastasis inhibitory activities of the peptide derivatives of the present invention were examined as follows.
Each of the following peptide derivatives according to the present invention, Compounds 1 to 13, 15, 19 to 22, 25, 32, 36, 37, 44, 47, 50, 56-1, 56-4, 59, 65, 68, 70, 73, 76, 77, 80, 84, 87, 89, 90, 94, 96, 99, 101, 103,106, 112, 114, 118 and 121 was mixed with B16-BL6 melanoma cells having a potent metastatic tendency in PBS so that 0.2 ml of the mixture contained 3000, 1000 or 500 μg of the peptide derivative and 5×10^6 of B16-BL6 melanoma cells. Then, 0.2 ml of each mixture was intravenously administered to each individual of a group of C57BL/6 female mice consisting of 5 mice. Fourteen days after the administration, the number of melanoma cell colony in lungs was determined and compared with that of the control mice, which were administered with PBS.
(§1) For comparison, the peptide fragments known to have tumor metastasis inhibition activity, Arg--Gly--Asp--Ser (SEQ ID NO:16) (Comparison A), Gly--Arg--Gly--Asp--Ser (SEQ ID NO:17) (Comparison B) and (Arg--Gly--Asp)n(n=5) (SEQ ID NO:18) as well as Reference Polymer A were also administered to the mice in the same manner as above.

[1] = system: L5178Y ML25 T-lymphoma cells; experiment: Experimental T-lymphoma metastasis in liver and spleen caused by injection of L5178Y ML25 T-lymphoma cells; format: in vivo, CDF1 (BALB/c×DBA/2) female mice; conditions: i.v., 14 days after; for Weight (g): Average ± SD Spleen: PBS control 0.28 ± 0.03, no tumor cells 0.08 ± 0; for Weight (g): Average ± SD Liver: PBS control 4.21 ± 0.49, no tumor cells 1.09 ± 0.11
Procedure: Separately, each of the following peptide derivatives of the present invention, Compound 1, 2, 8, 12, 20, 47, 56, 59, 67, 73 and 85, was mixed with L5178Y ML25 T-lymphoma cells in PBS so that 0.2 ml of the mixture contained 3000 or 1000 μg of the peptide derivative and 4×10^4 of the T-lymphoma cells. Then, 0.2 ml of each mixture was intravenously administered to each individual of a group of CDF1 (BALB/c×DBA/2) female mice consisting of 5 mice. Fourteen days after the administration, the weights of the livers and the spleens of the mice were determined and compared with those of the control mice.
as §1

[2] = Experiment 5, dose 1000 μg, PBS control 91 ± 33
[3] = dose 1000 μg mixed with T-lymphoma cells
[4] = Experiment 1, dose 3000 μg mixed with B16-BL6 cells, i.v., lung colonies 14 days after, PBS control 116 ± 27
[5] = dose 3000 μg mixed with T-lymphoma cells
[6] = Experiment 2, dose 1000 μg mixed with B16-BL6 cells, i.v., lung colonies 14 days after, PBS control 84 ± 11

In the case of CC(C)C[C@H](NC(=O)[C@H](CCCNC(=N)N)NC(=O)CCNC(=O)C(C)CS(=O)(=O)O)C(=O)N[C@@H](CC(=O)O)C(=O)N[C@@H](CO)C(=O)O (single isomer, unassigned) [Compound 47], the “Number of Colony Average ± SD” value (B16-BL6 melanoma cells; [2]) is reported as 25 ± 4, the “Weight (g): Average ± SD Spleen” value [1, 3] is reported as 0.14 ± 0.04 g and the “Weight (g): Average ± SD Liver” value [1, 3] is reported as 2.28 ± 0.54 g.
In the case of CC(C)C[C@H](NC(=O)[C@H](CCCNC(=N)N)NC(=O)CCNC(=O)C(C)CS(=O)(=O)O)C(=O)N[C@@H](CC(=O)O)C(=O)N[C@@H](CO)C(=O)O (single isomer, unassigned) [Compound 70], the “Number of Colony Average ± SD” value (B16-BL6 melanoma cells; [2]) is reported as 23 ± 5.
For CC(C)C[C@H](NC(=O)[C@@H](N)CCCNC(=N)N)C(=O)N[C@@H](CC(=O)O)C(=O)N[C@@H](CO)C(=O)O [Compound 1, Arg--Leu--Asp--Ser] (H-RLDS-OH), the “Number of Colony Average ± SD” value (B16-BL6 melanoma cells; [4]) was 35 ± 3, the “Weight (g): Average ± SD Spleen” value [1, 5] was 0.10 ± 0.02 g and the “Weight (g): Average ± SD Liver” value [1, 5] was 1.29 ± 0.32 g.
In the case of CC(C)C[C@@H](NC(=O)[C@@H](N)CCCNC(=N)N)C(=O)N[C@@H](CC(=O)O)C(=O)N[C@@H](CO)C(=O)O [Compound 2, Arg--D--Leu--Asp--Ser] (H-R[dL]DS-OH), the “Number of Colony Average ± SD” value (B16-BL6 melanoma cells; [4]) is reported as 41 ± 8, the “Weight (g): Average ± SD Spleen” value [1, 5] is reported as 0.11 ± 0.02 g and the “Weight (g): Average ± SD Liver” value [1, 5] is reported as 2.01 ± 0.20 g.
With CCCC[C@H](NC(=O)[C@@H](N)CCCNC(=N)N)C(=O)N[C@@H](CC(=O)O)C(=O)N[C@@H](CO)C(=O)O [Compound 3, Arg--Nle--Asp--Ser] (H-R[Nle]DS-OH) the “Number of Colony Average ± SD” value (B16-BL6 melanoma cells; [4]) was 39 ± 18.
In the case of CCCC[C@@H](NC(=O)[C@@H](N)CCCNC(=N)N)C(=O)N[C@@H](CC(=O)O)C(=O)N[C@@H](CO)C(=O)O [Compound 4] (H-R[dNle]DS-OH), the “Number of Colony Average ± SD” value (B16-BL6 melanoma cells; [4]) is reported as 35 ± 11.
N=C(N)NCCC[C@H](N)C(=O)N[C@@H](C(=O)N[C@@H](CC(=O)O)C(=O)N[C@@H](CO)C(=O)O)c1ccccc1 [Compound 5] (H-R[dPhg]DS-OH) was tested, and the “Number of Colony Average ± SD” value (B16-BL6 melanoma cells; [4]) was 51 ± 6.
For N=C(N)NCCC[C@H](N)C(=O)N[C@@H](Cc1ccccc1)C(=O)N[C@@H](CC(=O)O)C(=O)N[C@@H](CO)C(=O)O [Compound 6, Arg--Phe--Asp--Ser] (H-RFDS-OH), the “Number of Colony Average ± SD” value (B16-BL6 melanoma cells; [4]) was 51 ± 10.
In the case of N=C(N)NCCC[C@H](N)C(=O)N[C@H](Cc1ccccc1)C(=O)N[C@@H](CC(=O)O)C(=O)N[C@@H](CO)C(=O)O [Compound 7, Arg--D--Phe--Asp--Ser] (H-R[dF]DS-OH), the “Number of Colony Average ± SD” value (B16-BL6 melanoma cells; [4]) is reported as 25 ± 6.
CC(C)C[C@H](NC(=O)[C@H](N)CCCNC(=N)N)C(=O)N[C@@H](CC(=O)O)C(=O)N[C@@H](CO)C(=O)O [Compound 8, D--Arg--Leu--Asp--Ser] (H-[dR]LDS-OH) was tested, and the “Number of Colony Average ± SD” value (B16-BL6 melanoma cells; [4]) was 37 ± 9, the “Weight (g): Average ± SD Spleen” value [1, 5] was 0.11 ± 0.02 g and the “Weight (g): Average ± SD Liver” value [1, 5] was 1.92 ± 0.20 g.
In the case of CNC(=O)[C@H](CO)NC(=O)[C@H](CC(=O)O)NC(=O)[C@@H](CC(C)C)NC(=O)[C@@H](N)CCCNC(=N)N [Compound 11] (H-R[dL]DS-NHMe), the “Number of Colony Average ± SD” value (B16-BL6 melanoma cells; [4]) is reported as 19 ± 10.
With CC(C)C[C@@H](NC(=O)[C@@H](N)CCCNC(=N)N)C(=O)N[C@@H](CC(=O)O)C(=O)N[C@@H](CO)C(=O)NC(C)C [Compound 12] (H-R[dL]DS-NHiPr) the “Number of Colony Average ± SD” value (B16-BL6 melanoma cells; [4]) was 23 ± 4, the “Weight (g): Average ± SD Spleen” value [1, 5] was 0.17 ± 0.05 g and the “Weight (g): Average ± SD Liver” value [1, 5] was 2.67 ± 0.78 g.
For CC(C)C[C@H](NC(=O)[C@@H](N)CCCNC(=N)N)C(=O)N[C@@H](CC(=O)O)C(=O)N[C@@H](CO)C(=O)NC1CCCCC1 [Compound 13] (H-RLDS-NHcHex), the “Number of Colony Average ± SD” value (B16-BL6 melanoma cells; [4]) was 42 ± 8.
With CC(C)C[C@H](NC(=O)[C@H](CCCNC(=N)N)NC(=O)CCC(=O)O)C(=O)N[C@@H](CC(=O)O)C(=O)N[C@@H](CO)C(N)=O [Compound 19] (Suc-RLDS-NH2) the “Number of Colony Average ± SD” value (B16-BL6 melanoma cells; [6]) was 21 ± 8.
For CCCC[C@@H](NC(=O)[C@H](CCCNC(=N)N)NC(=O)CCC(=O)O)C(=O)N[C@@H](CC(=O)O)C(=O)N[C@@H](CO)C(=O)O [Compound 21] (Suc-R[dNle]DS-OH), the “Number of Colony Average ± SD” value (B16-BL6 melanoma cells; [6]) was 16 ± 13.
In the case of N=C(N)NCCC[C@H](NC(=O)CCC(=O)O)C(=O)N[C@H](Cc1ccccc1)C(=O)N[C@@H](CC(=O)O)C(=O)N[C@@H](CO)C(=O)O [Compound 22] (Suc-R[dF]DS-OH), the “Number of Colony Average ± SD” value (B16-BL6 melanoma cells; Experiment 2, dose 1000 μg administered 5 minutes after the administration of the myeloma cells, PBS control 84 ± 11) is reported as 19 ± 8 and the “tumor metastasis inhibitory activity” value (B16-BL6 melanoma cells; administered 5 minutes after the administration of B16-BL6 cells without mixing (Table 4, Experiment 2)) is reported as “high tumor metastasis inhibitory activity”.
In the case of CC(C)C[C@H](NC(=O)[C@@H](CCCNC(=N)N)NC(=O)CCC(=O)O)C(=O)N[C@@H](CC(=O)O)C(=O)N[C@@H](CO)C(=O)O [Compound 25] (Suc-[dR]LDS-OH), the “Number of Colony Average ± SD” value (B16-BL6 melanoma cells; [6]) is reported as 30 ± 6.
With CC(C)C[C@H](NC(=O)[C@H](CCCNC(=N)N)NC(=O)CCCOS(=O)(=O)O)C(=O)N[C@@H](CC(=O)O)C(=O)N[C@@H](CO)C(=O)O [Compound 50] (X1-RLDS-OH) the “Number of Colony Average ± SD” value (B16-BL6 melanoma cells; [2]) was 19 ± 10.
For CC(C)C[C@H](NC(=O)[C@H](CCCNC(=N)N)NC(=O)CCCOS(=O)(=O)O)C(=O)N[C@@H](CC(=O)O)C(=O)N[C@@H](CO)C(=O)O [Compound 65] (X1-RLDS-OH), the “Number of Colony Average ± SD” value (B16-BL6 melanoma cells; [2]) was 10 ± 4.
CC(C)C[C@@H](NC(=O)[C@H](CCCNC(=N)N)NC(=O)[C@H](CC(=O)O)NC(=O)CCC(C)OS(=O)(=O)O)C(=O)N[C@@H](CC(=O)O)C(=O)N[C@@H](CO)C(N)=O (stereo partly drawn) [Compound 67] (X2-DR[dL]DS-NH2) was tested, and the “Weight (g): Average ± SD Spleen” value [1, 3] was 0.12 ± 0.02 g and the “Weight (g): Average ± SD Liver” value [1, 3] was 1.62 ± 0.52 g.
In the case of N=C(N)NCCC[C@H](NC(=O)C(COS(=O)(=O)O)OS(=O)(=O)O)C(=O)N[C@H](Cc1ccccc1)C(=O)N[C@@H](CC(=O)O)C(=O)N[C@@H](CO)C(=O)O (stereo partly drawn) [Compound 68] (X3-R[dF]DS-OH), the “Number of Colony Average ± SD” value (B16-BL6 melanoma cells; [2]) is reported as 16 ± 5.
